In publication PMC4336329 (PLoS ONE, 2015):
About 2,200 (0.71%) of roughly 310,000 compounds showed an effect of 50% or more. The effect is printed as a negative number. Some of the results follow.

Target: human ether-à-go-go-related gene (hERG) potassium channel (human, UniProt Q12809)
Experiment: primary screen, population patch clamp on CHO cells stably expressing hERG

Sequence of human ether-à-go-go-related gene (hERG) potassium channel (Q12809 whole entry, looked up): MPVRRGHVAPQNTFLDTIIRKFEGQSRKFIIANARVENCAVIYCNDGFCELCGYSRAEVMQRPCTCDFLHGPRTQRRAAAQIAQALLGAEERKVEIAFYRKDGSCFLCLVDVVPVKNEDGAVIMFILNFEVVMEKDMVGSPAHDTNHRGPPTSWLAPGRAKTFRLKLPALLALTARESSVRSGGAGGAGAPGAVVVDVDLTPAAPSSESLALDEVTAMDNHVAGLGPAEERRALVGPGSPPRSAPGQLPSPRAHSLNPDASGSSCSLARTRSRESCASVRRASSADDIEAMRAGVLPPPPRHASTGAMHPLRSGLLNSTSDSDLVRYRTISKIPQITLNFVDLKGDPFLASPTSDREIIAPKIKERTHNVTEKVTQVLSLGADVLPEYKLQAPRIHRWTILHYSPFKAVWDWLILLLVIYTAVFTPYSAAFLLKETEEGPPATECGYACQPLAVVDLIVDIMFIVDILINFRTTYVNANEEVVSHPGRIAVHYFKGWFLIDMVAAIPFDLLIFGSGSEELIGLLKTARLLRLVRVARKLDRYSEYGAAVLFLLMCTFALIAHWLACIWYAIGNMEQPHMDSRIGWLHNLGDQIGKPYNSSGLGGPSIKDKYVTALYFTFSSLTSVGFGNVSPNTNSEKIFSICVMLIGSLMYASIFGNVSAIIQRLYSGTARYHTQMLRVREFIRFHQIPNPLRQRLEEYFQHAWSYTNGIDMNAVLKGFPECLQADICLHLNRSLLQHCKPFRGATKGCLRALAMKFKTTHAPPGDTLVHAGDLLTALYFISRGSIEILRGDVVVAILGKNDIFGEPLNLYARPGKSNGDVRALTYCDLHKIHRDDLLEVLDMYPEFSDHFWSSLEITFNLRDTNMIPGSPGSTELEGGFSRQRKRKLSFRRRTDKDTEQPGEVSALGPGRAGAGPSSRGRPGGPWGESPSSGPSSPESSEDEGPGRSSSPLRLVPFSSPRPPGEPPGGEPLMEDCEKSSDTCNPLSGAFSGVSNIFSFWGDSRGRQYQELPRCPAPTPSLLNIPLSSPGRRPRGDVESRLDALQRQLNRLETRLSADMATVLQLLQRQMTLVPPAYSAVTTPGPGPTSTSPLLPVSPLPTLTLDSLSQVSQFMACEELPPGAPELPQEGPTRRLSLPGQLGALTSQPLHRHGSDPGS

SMILES | hERG current change (%, negative = inhibition) at 1uM [%]
COc1ccc(NC(=S)N(C(C)C)C2CCN(C(C)C)CC2)cc1Cl | 10.9
O=C(O)C1C2C=CC(C2)C1C(=O)Nc1nccs1 (stereo not shown) | 16.2
COC(=O)CNC(=O)CSc1nc2sccc2c(=O)n1-c1ccccc1 | 9.01
O=C(COc1ccc(/C=N/NC(=O)c2cccnc2)cc1)Nc1ccccc1 | 8.85
Cc1cc2cc(CN3C(=O)c4ccccc4C3=O)ccc2n1C | 13.5
O=C1/C(=C/c2cccnc2)CCc2c1[nH]c1ccccc21 | 1.75
O=C(Nc1ccc(-n2cnnn2)cc1)C1CCC1 | 13.2
Cc1cccc(NC(=O)c2cccc(C(=O)Nc3cccc(C)c3C)n2)c1C | 18.1
CN(C)/C=C/C(=O)c1ccccc1 | -0.962
COc1ccc(CC(=O)N/N=C/c2c(C)n(C)c3ccccc23)cc1OC | 3.07
O=C(CC1CCCCC1)N1CCC(c2nc(-c3ccc(S(=O)(=O)N4CCCC4)cc3)no2)CC1 | -1.89
CC1CC(C)CN(C(=O)COC(=O)c2c[nH]c3ccccc23)C1 (stereo not shown) | -8.31
CCC(C)c1ccc(NC(=O)C2CCN(c3ccc(C(F)(F)F)cn3)CC2)cc1 (stereo not shown) | 9.78
O=C(CC1CCCC1)Nc1cc(C(F)(F)F)ccc1-n1cncn1 | 2.88
O=C1Nc2ccccc2N=C(c2ccccc2)C1N1CCOCC1 (stereo not shown) | 18.1
CCOC(=O)c1cnc2cc(-c3ccc(Br)cc3)nn2c1C | 18.3
Cc1ccc(/C=c2\sc3nc(-c4ccco4)nn3c2=O)o1 | -1.26
COc1ccc(OC)c(C(C)NC(=O)Nc2cccc(C(C)=O)c2)c1 (stereo not shown) | 11.4
COc1ccc(COCC(O)CN2CCC(C(N)=O)CC2)cc1OC (stereo not shown) | 7.91
Cn1c(C(=O)NCCCN2CCN(c3cccc(Cl)c3)CC2)cc2c(=O)n(C)c3ccccc3c21 | 11.8

SMILES | hERG current change (%, negative = inhibition) at 1uM [%]
Cc1ccc(OCC(=O)Nc2ccc(S(=O)(=O)N3CCN(C)CC3)cc2)cc1 | 9.45
O=C1c2ccccc2NC(c2cccc(O)c2)N1Cc1ccco1 (stereo not shown) | 9.32
CCCCNCCOCCOc1ccc(F)cc1 | 8.42
CCc1nc(N2CCN(C(=O)c3ccccc3)CC2)c(C#N)c2c1COC(C)(C)C2 | -1.39
CCN(CC)CCSc1nc2ccc(OC)cc2[nH]1.Cl | -15.8
CC(C)CNC(=S)NNC(=O)c1ccccc1OC(F)F | 5.74
COc1ccc(NC(=O)Nc2ccc3[nH]ccc3c2)cc1 | 12.7
c1nc(N2CCN(Cc3ccc4c(c3)OCO4)CC2)c2[nH]cnc2n1 | 4.17
CCC1C(=O)NCCN1Cc1nc(-c2ccc(C)s2)oc1C (stereo not shown) | 18
FC(F)(F)c1cccc(-n2c(Cn3nnc4ccccc43)n[nH]c2=S)c1 | 13.4
O=C(CN1C(=O)C2C3c4ccccc4C(c4ccccc43)C2C1=O)N1CCOCC1 (stereo not shown) | 0.75
CS(=O)(=O)N1CCC(C(=O)Nc2cc(Cl)cc(Cl)c2)CC1 | 8.74
CCOC(=O)c1nc(C)n(-c2cc(Cl)ccc2Cl)n1 | 6.72
O=C(c1ccc(C(F)(F)F)cc1)C1CCCN(C(=O)CCc2cnccn2)C1 (stereo not shown) | 14.1
NC(=O)c1sc2cc(C(F)(F)F)cnc2c1-c1cccs1 | 9.47
O=C(NN=C1CCCC1)c1cc(Br)ccc1O | 9.9
CC(=O)Nc1nc(C)nc(C)c1C(C)=O | 10.9
Cc1ccc([N+](=O)[O-])cc1-c1ccc(/C=C(\C#N)c2[nH]nc(N)c2C#N)o1 | 15
O=C(OCCc1cc2ccccc2c(=O)o1)c1ccc(F)cc1 | 16.2
CCCn1ccnc1SC(C)C(=O)Nc1c(C)n(C)n(-c2ccccc2)c1=O (stereo not shown) | 13.4

SMILES | hERG current change (%, negative = inhibition) at 1uM [%]
COc1ccc(-n2c(SCCC(=O)O)nnc2-c2ccncc2)cc1 | 7.01
O=C(c1cc2ccccc2cc1O)N1CCCC(C(F)(F)F)C1 (stereo not shown) | 7.51
COc1ccc(OCC(=O)N2CCN(c3cccc(Cl)c3)CC2)cc1 | -10.3
CCn1c(SCC(=O)NCc2ccccc2)nnc1-c1c[nH]c2ccccc12 | -7.03
Cc1cccn2c(NCc3ccc4c(c3)OCO4)c(-c3ccc(O)cc3)nc12 | -6.87
CC(=O)Nc1ccc(NC(=O)COC(=O)c2cc(S(=O)(=O)N(C)C)ccc2N2CCCC2)cc1 | 8.5
C/C(=N/N1CCN(Cc2ccccc2)CC1)c1ccc(Br)cc1 | 7.67
CC1CCc2cc(F)ccc2N1S(=O)(=O)c1ccc(Cl)nc1 (stereo not shown) | 12
O=C(Nc1nc(=O)c2ccccc2s1)c1ccc(F)cc1 | 15.6
CCN(CC)CCN1C(=O)c2ccccc2NC1c1ccc(C)cc1 (stereo not shown) | -48.3
COc1ccc(NC(=O)CCNS(=O)(=O)c2ccc3c(c2)c(=O)n(C)c(=O)n3C)cc1 | 1.01
O=C(c1c(F)cccc1F)N1CCN(CCOc2ccccc2)CC1 | 8.41
CCOC(=O)C1(CCCc2ccccc2)CCN(C(=O)c2cnc(C)cn2)CC1 | -1.76
COc1ccc(OCc2ccc(C(=O)NN)cc2)cc1 | -2.28
O=C(Cn1c(=O)n(-c2cccc(Cl)c2)c(=O)n1CC(=O)N1CCCCC1)N1CCCCC1 | 11.2
O=C(NC(=S)Nc1ccccc1)c1cncc(C#Cc2ccccc2)c1 | 12.8
C/C(=N/NC(=O)c1cc(C)[nH]n1)c1ccncc1 | 8.47
C=CCn1c(Sc2nncn2C)nc2c1c(=O)[nH]c(=O)n2C | 5.52
